# The other results are listed elsewhere or left out.
# T1: UNK ZnF1-3 (human, UniProt Q9C0B0 31-174)
# T1 sequence: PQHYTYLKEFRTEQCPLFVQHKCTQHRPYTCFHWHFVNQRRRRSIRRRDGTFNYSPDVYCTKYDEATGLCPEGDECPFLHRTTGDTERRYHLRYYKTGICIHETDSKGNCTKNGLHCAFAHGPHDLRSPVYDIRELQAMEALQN
# B1: chr12:70286429:70286430:+_ENSMUSG00000043998_ENSMUST00000060579|mus_hu|motif|central (ssRNA)
# RNA: GGGAGUUCUACAGUCCGACGAUCGCACUCUUGCUGCUUCAGUUUCCACAUCUUUUUGAAGACAUGGUAAAAGUCUGGGGCGGAGUAGUGAUCCUCUUCUAGGAAAAGUAUAAGGCCAGCAUAAUCUCGAAGAAUUUUCACUCUCAACAGAGGAUUGAGCAUCA
# B2: chr2:5814250:5814251:-_ENSMUSG00000025816_ENSMUST00000102981|mus_hu|mus_mus_mus_hu_True|38_78 (ssRNA)
# RNA: GGGAGUUCUACAGUCCGACGAUCUUCCUUUCCGGUUUCUGAAUUUCUGGUAGAACUGCACAGAAAGGUUUGAUAACUUCUAAAAAUUUGAUGCCCAUGGCGGCGGCUGGGGAGGCCCAGGGGGAAACCGCGGCCUCGGCGCUGCAACAGAGGAUUGAGCAUCA
# B3: chr7:56126341:56126342:+_ENSG00000146731_ENST00000540286|hu_mus|hu_hu_hu_mus_True|8_8 (ssRNA)
# RNA: GGGAGUUCUACAGUCCGACGAUCCAUGUUUCUCCUCUUGGCUCUGCGCAGAGCUACGAUCCCUUCUUUCGCAAGGGCAUCUAAGGAAAAGGGGUCAAUCCCCUUUUGAUUAAUAACGACAAAUCCUUUAUCUGAAUCACCACACAACAGAGGAUUGAGCAUCA
# B4: chr5:128448638:128448639:+_ENSG00000066583_ENST00000173527|hu_mus|hu_hu_hu_mus_False|48_48 (ssRNA)
# RNA: GGGAGUUCUACAGUCCGACGAUCGGCACUCGCCUUAAUUAGGUUCUGAAUUUCCUUGAACUUCGGGUGGUCUUUGUCAGCCACCAGCUGAAGCAGAACAGCCUCACUAGUGGUCACGAUGAUCCCAGUGCGGGCAAGACGCUCCAACAGAGGAUUGAGCAUCA
# B5: 21805100_21819241_1653_CDS_ENSG00000141447_ENST00000319481|human|control|control (ssRNA)
# RNA: GGGAGUUCUACAGUCCGACGAUCCUCUUCAAAGGAGCGUGCUGUCACUGCUUCCAAUCUACUCAGGGACCUUUCGGACUCGGAAUCUGACAGCGCAUCAUAGAACUCGUCCUCGCUAAGGAUGCUGGCGGGUGGAGAGCCUUUCAACAGAGGAUUGAGCAUCA
# B6: 55348168_55348288_2700_CDS_ENSMUSG00000021488_ENSMUST00000099490|mouse|control|control (ssRNA)
# RNA: GGGAGUUCUACAGUCCGACGAUCUGCCUUUGCCGUUCCAGAAUCACUUACGUCUUCACUUAAUGAUCUGUACGAGAGCUCCUUCAGUUCCGAAAGAACGUGCUUCACCACUGCUGUUUCUAUGUCACUAGAAUCUCUGGUUUUCAACAGAGGAUUGAGCAUCA
# B7: chr1:55207850:55207851:+_ENSMUSG00000025979_ENSMUST00000162364|mus_mus|motif|central (ssRNA)
# RNA: GGGAGUUCUACAGUCCGACGAUCCCGGUGAUGAAAAUAGGCAUGUGAAAAUAUUCUAUAAAUCCUACGGCACACUGAUCCGGGUUUUGCUACAGAUGAUUCUUUUAUGCUAACCCUGCUGGGAAAAUAUUUAUUGCUAUUCAGCAACAGAGGAUUGAGCAUCA
# B8: chr19:29884105:29884106:-_ENSMUSG00000074909_ENSMUST00000099525|mus_hu|FALSE|FALSE (ssRNA)
# RNA: GGGAGUUCUACAGUCCGACGAUCAGGGAGAAAACAGUUCUCUGAUUUAUAAUAAAAUCUAUUCACAACACUUAUUUGUAGUUACUUUUAUAAUAGAUAAUAUUCAAGUUAUAUUAAAGUGCUUCAAGCAAAAUUUAGCAACUCCAACAGAGGAUUGAGCAUCA
# B9: chr3:87342203:87342204:+_ENSMUSG00000003382_ENSMUST00000170036|mus_hu|FALSE|FALSE (ssRNA)
# RNA: GGGAGUUCUACAGUCCGACGAUCCGGAUAUGGAGUGAUUUCUUCUCUCGCUGCUGCGACGCAGAUCUGAGCCACAGUCAGGUACCAAUGUACACGACAUAGGCACAUGUGCAAACACAAAGAAGGUGGGCUGCUGCUUCUUUCCAACAGAGGAUUGAGCAUCA
# B10: chr4:136884974:136884975:-_ENSMUSG00000006699_ENSMUST00000030417|mus_mus|FALSE|FALSE (ssRNA)
# RNA: GGGAGUUCUACAGUCCGACGAUCCACCCACUUUUCUUUCACAUUUUCAAAUGAGGAUGGAGAGACCACUGAGAAACAUACUAGAAAAACAUCUGUCUGUGGAUAACUUAGCGGUCGUAGUCUGUCAUAAUCCUCUUGCCCUGCCAACAGAGGAUUGAGCAUCA
# B11: chr12:111160049:111160050:-_ENSG00000186298_ENST00000335007|hu_mus|FALSE|FALSE (ssRNA)
# RNA: GGGAGUUCUACAGUCCGACGAUCAAACUCGCCACAGUAGUUGGGUGCAGAAAACAGAGUGACUAACUGCCUCUUUGCAAAAAACUCAUAGCCAUCUUCAACCACCUGAUGGGCUCUACAUAUAAGAUCCAAAUCAUGCUUAUGCAACAGAGGAUUGAGCAUCA
# B12: 108935614_108935734_498_3pUTR_ENSG00000138796_ENST00000309522|human|control|control (ssRNA)
# RNA: GGGAGUUCUACAGUCCGACGAUCACUUGUCCAGCCUUUUGAAGAGCUCGUUUUUCACCUUCAGAUUCUCCACGAUGGCUUCCACCACCAAGUCUGUGCUGUGGACAACGGAGGCUGCAUCCGUGCUGGUCGCUAUGGUGCUCACAACAGAGGAUUGAGCAUCA
# B13: chr10:82349929:82349930:+_ENSMUSG00000020250_ENSMUST00000020484|mus_mus|FALSE|FALSE (ssRNA)
# RNA: GGGAGUUCUACAGUCCGACGAUCAUAACAUUUGUUGUUAUCCCGGGAUGGGACUGUCCAUUCCAAUGGCCAAAAGAAACUAUGGUAAACUUCAAUAUUUUCUUCCCCAAAUUUCUCUACGGCUUUUUCUUCAGAGAGGCCACACAACAGAGGAUUGAGCAUCA
# B14: chr2:66073698:66073699:-_ENSMUSG00000034848_ENSMUST00000102718|mus_hu|FALSE|FALSE (ssRNA)
# RNA: GGGAGUUCUACAGUCCGACGAUCUUGCUGGAUUUCAUUUAAAAAUUCUAGCUGCUGAUCUGCAUCCUGUAAUUGCCCUUCUAUCAACUGACAUUGGAUAAAUCCAACUAGGGCAGACACACUAGUCUCAUCAAGUGUCAUGGCCAACAGAGGAUUGAGCAUCA
# B15: chr11:102767452:102767453:-_ENSMUSG00000051378_ENSMUST00000021311|mus_mus|FALSE|FALSE (ssRNA)
# RNA: GGGAGUUCUACAGUCCGACGAUCGGUGAGGAAGGCAGGCUAGGGACUCUUGGCAUUGGCAGCUGUAGACAAGAGAAGGCUAUUGGCGAAUCAGAACAAUCGUGGAUGCCAGGAGUCCCUCGUGGUCAGAACACCCAGUUAAUACAACAGAGGAUUGAGCAUCA
# B16: chr6:30681072:30681073:-_ENSG00000137337_ENST00000376406|hu_hu|FALSE|FALSE (ssRNA)
# RNA: GGGAGUUCUACAGUCCGACGAUCGGAGGCCUCCUCUGUGGCUGGUUGCUGACCUUCUUCCACAUCUGUGUCACUGUUCAAAUUGAAGGCAAAAGGCGGCCCAAGGCCGCCCAGGACCGGGGAAUGCCCCUCUUCAUCACUCUCCAACAGAGGAUUGAGCAUCA
# B17: chr12:73642893:73642894:+_ENSMUSG00000034501_ENSMUST00000044352|mus_hu|FALSE|FALSE (ssRNA)
# RNA: GGGAGUUCUACAGUCCGACGAUCGAAGAAUAGUAGAGCAGUGCCUCCUGUACUGCCAUACAGCAAGGUUAUUCUAUUUGGGAGCAGAUACCAUGUUCCAAGACCACACGCUAAUCCAGCAAGAAUAGAAUGAAAAACUGUAUUCAACAGAGGAUUGAGCAUCA
# B18: chrX:70926549:70926550:+_ENSMUSG00000019558_ENSMUST00000114465|mus_mus|FALSE|FALSE (ssRNA)
# RNA: GGGAGUUCUACAGUCCGACGAUCCAGGCAGACCCCCAAACUGUCAAGGAAAGGCAAGCCCCCGGAGGGAUGAGUGGGGGCUAAAGUUGGGGCUGCUAUGGCUACCAAAGGAUGAGCUGGUGAUGUGAGCUGGGGGUGCCUGUUCAACAGAGGAUUGAGCAUCA
# B19: chr4:110441554:110441555:+_ENSG00000138802_ENST00000265175|hu_hu|motif|central (ssRNA)
# RNA: GGGAGUUCUACAGUCCGACGAUCUGAUAAUCCUUCUUGUAAAUUGUAGAAAUGAAUAGUGCUAUCAAAGGUCAUGAAUCCGGUUCUUGUUCGUGAAUCUCCAGGAAGCUUGUCUAGAUUUUCUAGGAGUGACUGGCACAAAAUCAACAGAGGAUUGAGCAUCA
# B20: chr14:70237991:70237992:+_ENSG00000100650_ENST00000557154|hu_hu|FALSE|FALSE (ssRNA)
# RNA: GGGAGUUCUACAGUCCGACGAUCCCUGCUUCUUGACCGGCUGUAAGAUUUGCGACUACGGGAACGGGAUCGGCUACGAGACCUAGAGGAACUUCUGGUCCGGGAUCGAGACCUGCUUCUUGACCUACUGUGCCUUUUGCUGCCCAACAGAGGAUUGAGCAUCA
# B21: chr1:187239687:187239688:+_ENSMUSG00000026615_ENSMUST00000046514|mus_mus|FALSE|FALSE (ssRNA)
# RNA: GGGAGUUCUACAGUCCGACGAUCCCAGGAGCACUGGUAUGCAAACUGCUUUUCUCCUGGUGUCUUGGGAUCUUCAAAAACUAUUUCACACAUUUUGGAGAAAUUCUGGCCUAAAUGGUGUGAUGUUGCUCCCUGAAUGGCGCGCAACAGAGGAUUGAGCAUCA
# B22: 124644708_124644828_621_CDS_ENSG00000120458_ENST00000374979|human|control|control (ssRNA)
# RNA: GGGAGUUCUACAGUCCGACGAUCCAGCUCCUGGUACAAGCCACUACUGUUAAUAAGUACAGGCUGGCAGGGCUGAGCAUCCCAUCCUCCCUGACCAAACACCUGUUCCAACUGUUCAAAUGUGUAACUGCUCUUUCUUUUCCCCAACAGAGGAUUGAGCAUCA
# Molecular target: T1, UNK ZnF1-3
# Experiment: nsRBNS (natural sequence RNA bind-n-seq); RBNS binding buffer (assumed for nsRBNS): 25 mM Tris pH 7.5, 150 mM KCl, 3 mM MgCl2, 0.01% Triton X-100, 500 ug/ml BSA, 20 U/ml SUPERase-In, 4 C; UNK is unkempt and MSI1 is Musashi-1; names of the RNAs are library labels; protein concentration not given here; high values mean tight binding
row,Binder,binding signal
1,B1,1 enrichment R
2,B2,1.19 enrichment R
3,B3,0.916 enrichment R
4,B4,0.695 enrichment R
5,B5,0.756 enrichment R
6,B6,0.586 enrichment R
7,B7,1.48 enrichment R
8,B8,0.926 enrichment R
9,B9,0.74 enrichment R
10,B10,1.37 enrichment R
11,B11,1.02 enrichment R
12,B12,1.01 enrichment R
13,B13,0.633 enrichment R
14,B14,0.843 enrichment R
15,B15,0.972 enrichment R
16,B16,0.421 enrichment R
17,B17,0.914 enrichment R
18,B18,1.58 enrichment R
19,B19,1.68 enrichment R
20,B20,1.02 enrichment R
21,B21,0.709 enrichment R
22,B22,1.3 enrichment R
